Assay results taken from PubChem BioAssay AID485364 (National Center for Advancing Translational Sciences (NCATS), 2010).
Hit rate of the full screen: of about 360,000 compounds, about 11,000 (3.1%) were called active. The shares of active, inactive and inconclusive entries below differ from those in the screen. Calls come from the whole dose curve; as a rule, active = well fitted inhibition curve with a large enough effect; inconclusive = small, poorly fitted or top-dose-only effect; inactive = no such curve, though single readings can be large or run the other way. Potencies of inconclusive entries are left out as doubtful fits.

Each molecule was assayed against Schistosoma mansoni thioredoxin glutathione reductase (TGR) (UniProt Q962Y6) (assay: qHTS Assay for the Inhibitors of Schistosoma Mansoni Peroxiredoxins). Settings: purified TGR, DTNB reduction, TNB absorbance 405 nm; activity change, negative = inhibition: at 114 µM (top of the series) unless noted.
How it was run: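 Kinetic colorimetric format: TGR-catalysed, NADPH-driven DTNB reduction monitored via TNB absorbance. Enzyme dispensed at 20 nM; compound exposure 15 min at room temperature before reaction start.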
% is set by controls: 0 for no effect and ±100 for the full control effect; potency is the fitted concentration of half-maximal effect; tags give direction and shape of the fitted curve.
Note: nearly all actives have a fitted effect of over 60% in size.

Question: `CC(C)CC(=O)Nc1ccc(C(=O)OCc2cc(=O)n3nc(C(C)C)sc3n2)cc1` was tested. Which Potency did it give?
Answer: inactive

Question: With `CN1C(=O)N(C)C(=O)C2(Cc3ccccc3N3CCCC32)C1=O` (centres undefined) as the molecule, how does the Potency read?
Answer: inconclusive [inhibitor, partial curve]

Question: With `COCCOC(=O)C1=C(C)NC2=C(C(=O)CCC2)C1c1cc2c(cc1Br)OCO2` (centres undefined) as the molecule, how does the Potency read?
Answer: inconclusive [inhibitor, partial curve, poor fit]

Question: For `Cn1nc(-c2ccc(Cl)cc2)c2cc(C(=O)NC3CC3)sc21`, which Potency is on record?
Answer: inactive

Question: Which Potency does the source give for `COC(=O)\C(C(C)=O)=C(/C=C/C=C/C=C/N(C)C)N(C)C` here?
Answer: active: 35.5 µM

Question: How did the Potency turn out when `CC1(C)CC(C#N)(N2CCOCC2)CCO1` (centres undefined) was run?
Answer: active: 12.6 µM

Question: How did the Potency turn out when `Oc1ccc(N2CCN(CC(O)c3ccccc3)CC2)cc1` (centres undefined) was run?
Answer: inconclusive [inhibitor, partial curve]

Question: For `CCOC(=O)c1cnc(SC2CCc3ccccc3C2=O)nc1N` (centres undefined), which Potency is on record?
Answer: inconclusive [inhibitor, partial curve]

Question: `CC12CCCCN1CCCc1c2[nH]c2ccccc12` (centres undefined) was tested. Which Potency did it give?
Answer: inconclusive [inhibitor, single point]

Question: For `CN(C)CCCN(C(=O)CCS(=O)(=O)c1ccccc1)c1nc2cc3c(cc2s1)OCO3`, which Potency is on record?
Answer: active: 3.98 µM

Question: Which Potency does the source give for `COc1ccc(NS(=O)(=O)c2ccc(C)c(C(=O)N3CCCCCCC3)c2)cc1` here?
Answer: inactive

Question: Which Potency does the source give for `N#Cc1c(NC(=O)c2cc3nc(-c4ccc(Br)cc4)cc(C(F)(F)F)n3n2)sc2c1CCCC2` here?
Answer: inactive

Question: `CC(C)(C)OC(=O)NCCc1nnc(S(=O)(=O)Cc2ccc(Cl)cc2Cl)o1` was tested. Which Potency did it give?
Answer: active: 0.891 µM

Question: With `O=C(c1ccco1)[C@@H]1[C@@H]2C(=O)N(c3ccc(Br)cc3)C(=O)[C@@H]2C2c3ccccc3C=CN21` (some centres undefined) as the molecule, how does the Potency read?
Answer: active: 17.8 µM

Question: How did the Potency turn out when `CC(C)Cn1c(SCC(=O)c2ccc(Cl)s2)nnc1-c1ccco1` was run?
Answer: inconclusive [inhibitor, partial curve]

Question: `Cc1oc(-c2ccc(Cl)cc2)nc1CS(=O)CC(=O)NCc1ccc(Cl)cc1` (centres undefined) was tested. Which Potency did it give?
Answer: inconclusive [inhibitor, partial curve]

Question: With `Cn1c(=O)c2c(SCC(=O)NCc3ccco3)nc(CC(C)(C)C)nc2n(C)c1=O` as the molecule, how does the Potency read?
Answer: inactive

Question: How did the Potency turn out when `OCc1ccc(-c2nn(Cc3ccccc3)c3ccccc23)o1` was run?
Answer: inconclusive [inhibitor, partial curve]

Question: `CCCCC(=O)Nc1ccc(NC(=O)c2ccc3c(c2)OCO3)cc1OC` was tested. Which Potency did it give?
Answer: inactive

Question: For `O=C(OCC(=O)c1c[nH]c2ccccc12)c1ccc([N+](=O)[O-])s1`, which Potency is on record?
Answer: inconclusive [inhibitor, partial curve]

Question: How did the Potency turn out when `COc1ccc(S(=O)(=O)N[C@@H](Cc2ccccc2)C(=O)N2CC[C@@]3(O)CCCC[C@H]3C2)cc1` was run?
Answer: inactive

Question: With `COc1c(C)cccc1C(=O)NC(=S)Nc1ccccc1N1CCCC1` as the molecule, how does the Potency read?
Answer: inconclusive [inhibitor, single point]

Question: With `CCOC(=O)c1c(C)[nH]c2cc(Br)c(O)cc12` as the molecule, how does the activity change, negative = inhibition read?
Answer: inactive: -0.135% [at 11.4 µM]

Question: For `CC1CCN(C(=O)c2[nH]cnc2C(=O)Nc2nccs2)CC1`, which Potency is on record?
Answer: active: 28.2 µM

Question: Which Potency does the source give for `COC(=O)c1ccc(COc2ccc(-c3nnn(CC(N)=O)n3)cc2)cc1` here?
Answer: inactive

Question: With `Cc1nn(-c2ccccc2)c(Cl)c1/C=C(\C#N)C(=O)NC(C)C` as the molecule, how does the Potency read?
Answer: inactive

Question: With `Cc1ccc2c(C(=O)CN3CCN(C4CCCCC4)CC3)c(C)[nH]c2c1` as the molecule, how does the Potency read?
Answer: inactive

Question: For `Cn1cccc1CC(=O)NNC(=O)Nc1ccccc1F`, which Potency is on record?
Answer: inconclusive [inhibitor, single point]

Question: With `COc1ccc(C(=O)n2nc(-c3ccco3)nc2NCc2cccs2)cc1` as the molecule, how does the Potency read?
Answer: active: 11.2 µM

Question: With `CC1=CC(=O)NP(=O)(Oc2ccc3ccccc3c2)N1` (centres undefined) as the molecule, how does the Potency read?
Answer: inconclusive [inhibitor, full curve]

Question: For `Cc1ccc(CN(C)C(=O)c2ccccc2NC(=O)c2ccccc2)o1`, which Potency is on record?
Answer: active: 39.8 µM

Question: Which Potency does the source give for `Cc1ccc(N2CC(C(=O)Nc3ccc(Br)cc3)CC2=O)cc1` (centres undefined) here?
Answer: inactive

Question: Which Potency does the source give for `C=CCNC(=O)CN1CCC(c2nc3ccccc3[nH]2)CC1` here?
Answer: inconclusive [inhibitor, single point]

Question: With `NC(=O)c1c(NC(=O)COC(=O)CSc2nnc(-c3ccc(Cl)cc3)o2)sc2c1CCC2` as the molecule, how does the Potency read?
Answer: inconclusive [inhibitor, partial curve]

Question: Which Potency does the source give for `CCOc1cc2[nH]c(=O)n(CCC(=O)NCCc3ccc(OC)c(OC)c3)c(=O)c2cc1OCC` here?
Answer: inconclusive [inhibitor, single point]

Question: `COc1ccc(C(=O)Nc2ccc3oc(-c4cccc(Cl)c4)cc(=O)c3c2O)cc1` was tested. Which Potency did it give?
Answer: inconclusive [inhibitor, partial curve]

Question: `O=C(CSC1=NNC(c2ccccn2)S1)Nc1ccccc1` (centres undefined) was tested. Which Potency did it give?
Answer: inconclusive [inhibitor, full curve, poor fit]

Question: With `Cc1cccc(NC(=O)c2ccc(N3C(=O)C4C5C=CC(C6CC56)C4C3=O)cc2)c1` (centres undefined) as the molecule, how does the Potency read?
Answer: inactive

Question: With `COC(=O)C1C2C=CC3(CN(CC4CCCO4)C(=O)C13)O2` (centres undefined) as the molecule, how does the Potency read?
Answer: inconclusive [inhibitor, partial curve, poor fit]

Question: `CCOC(=O)C1(Cc2cccc(OC)c2)CCN(Cc2cccnc2)CC1` was tested. Which Potency did it give?
Answer: inactive

Question: How did the Potency turn out when `NC(=O)Cc1c[nH]c2cccc(O)c12` was run?
Answer: inconclusive [inhibitor, partial curve]

Question: For `CSc1nc(N)c(N=Nc2ccc([As](=O)(O)O)cc2)c(=O)[nH]1`, which Potency is on record?
Answer: active: 0.316 µM

Question: With `C/C(=N\NS(=O)(=O)c1ccc(C)cc1)c1ccc(C)s1` as the molecule, how does the Potency read?
Answer: inconclusive [inhibitor, partial curve]

Question: With `Cc1[nH][nH]c(=O)c1C(c1ccc(Cl)cc1)c1c(C)[nH][nH]c1=O` as the molecule, how does the Potency read?
Answer: inconclusive [inhibitor, partial curve, poor fit]

Question: For `COc1ccc(NC(=S)Nc2ccc3snnc3c2)cc1`, which Potency is on record?
Answer: active: 15.8 µM

Question: With `Cc1cc(O)c(CN(C)C)c2c1C(=O)/C(=C/c1ccco1)O2` as the molecule, how does the Potency read?
Answer: active: 3.98 µM

Question: How did the Potency turn out when `CCCCCCc1cc2cc(S(=O)(=O)c3ccc(Cl)cc3)c(=O)oc2cc1O` was run?
Answer: inconclusive [inhibitor, partial curve]

Question: Which Potency does the source give for `Cc1ncc(CN2CCN(Cc3ccccc3)C(CCO)C2)s1` (centres undefined) here?
Answer: inconclusive [inhibitor, partial curve]

Question: `C=C(C)c1cccc(C(C)(C)NC(=O)NCCN(CC)CC)c1` was tested. Which Potency did it give?
Answer: inconclusive [inhibitor, single point]

Question: With `O=C(N/N=C\c1ccc(CN(Cc2ccc(Cl)cc2)S(=O)(=O)c2ccccc2)o1)C(=O)Nc1ccc(F)cc1` as the molecule, how does the Potency read?
Answer: inconclusive [inhibitor, partial curve]

Question: Which Potency does the source give for `Cn1c(O)c(C(=Nc2ccccc2)SCc2ccc(Cl)cc2)c(=O)n(C)c1=O` here?
Answer: active: 20 µM

Question: `CC(NS(=O)(=O)c1ccc(Br)cc1)C(=O)Nc1nc2ccccc2[nH]1` (centres undefined) was tested. Which Potency did it give?
Answer: inconclusive [inhibitor, partial curve]

Question: For `CCCCC(c1nnnn1CC1CCCO1)N1CCN(c2nc3ccccc3s2)CC1` (centres undefined), which Potency is on record?
Answer: inactive

Question: `COc1cc(OC)cc(-c2ncc3ccccn23)c1` was tested. Which Potency did it give?
Answer: inconclusive [inhibitor, partial curve]

Question: `CC(CCc1ccccc1)NC(=O)CNC(=O)c1cccs1` (centres undefined) was tested. Which Potency did it give?
Answer: inconclusive [inhibitor, full curve, poor fit]

Question: Which Potency does the source give for `CCc1ccc(-c2nc(CS(=O)CC(=O)NCCN3CCCCCC3)c(C)o2)cc1` (centres undefined) here?
Answer: inconclusive [inhibitor, full curve, poor fit]

Question: How did the Potency turn out when `CCCCN1CCCc2cc(CN(CCCN3CCOCC3)C(=O)Nc3ccc(OCC)cc3)ccc21` was run?
Answer: inconclusive [inhibitor, single point]

Question: `Clc1ccc(C(c2nnnn2C2CCCC2)N2CCSCC2)cc1` (centres undefined) was tested. Which Potency did it give?
Answer: inactive

Question: For `O=C(COc1ccccc1)N/N=C/c1ccc([N+](=O)[O-])o1`, which Potency is on record?
Answer: inconclusive [inhibitor, partial curve]

Question: For `O=C(NCC1CCCO1)C1CCN(S(=O)(=O)c2cccc3cccnc23)CC1` (centres undefined), which Potency is on record?
Answer: inactive

Question: Which Potency does the source give for `Oc1ccc(CN2CCCc3ccccc32)c2cccnc12` here?
Answer: active: 0.1 µM

Question: How did the Potency turn out when `Cc1ccc(S(=O)(=O)CC(=O)NCc2ccccc2)cc1` was run?
Answer: inconclusive [inhibitor, full curve, poor fit]

Question: `N#Cc1ccccc1OCc1cccc(S(=O)(=O)N2CCOCC2)c1` was tested. Which Potency did it give?
Answer: inactive

Question: How did the Potency turn out when `CNC(=O)N/N=C(\N)c1ccccn1` was run?
Answer: inactive

Question: Which Potency does the source give for `Cc1ccc(NC(=O)COC(=O)Cn2c(C)csc2=O)cc1` here?
Answer: inconclusive [inhibitor, single point]

Question: For `COC(=O)c1[nH]c2c(c1C)C(=O)CC(c1ccc(C)cc1)C2` (centres undefined), which Potency is on record?
Answer: inconclusive [inhibitor, partial curve]

Question: How did the Potency turn out when `O=C1CN(C(=O)CNCc2ccccc2)c2ccccc2N1` was run?
Answer: inconclusive [inhibitor, partial curve]

Question: Which Potency does the source give for `CC1=CN2C(=N)/C(=C/c3ccc([N+](=O)[O-])o3)C(=O)N=C2S1` here?
Answer: active: 3.55 µM

Question: Which Potency does the source give for `COc1cccc(OCCNC(=O)c2ccccc2Sc2ccccc2C#N)c1` here?
Answer: inactive

Question: For `Cc1cc(C)c2c(C(C)(C)C)nn(-c3ccccc3)c2n1`, which Potency is on record?
Answer: inconclusive [inhibitor, single point]

Question: With `Cc1ccc(-c2noc(CN3C(C)CCCC3C)n2)cc1` (centres undefined) as the molecule, how does the Potency read?
Answer: inconclusive [inhibitor, partial curve]

Question: With `COC(=O)c1ccc(C2c3c(oc4cc(C)c(C)cc4c3=O)C(=O)N2CCCN(C)C)cc1` (centres undefined) as the molecule, how does the Potency read?
Answer: inconclusive [inhibitor, partial curve]

Question: Which Potency does the source give for `CC(=O)c1ccc(N2CCCC2)c(F)c1` here?
Answer: inactive

Question: Which Potency does the source give for `Cc1ccc(S(=O)(=O)CCC(=O)OCC(=O)c2cc(C)n(C)c2C)cc1` here?
Answer: inconclusive [inhibitor, partial curve]
